Source: the supplement of paper PMC12632987
Whole data set: some 2,300 sequences, median “median log2 fold change of GCK-ALFA target abundance (FLAG IP / Myc IP barcode read proportion)” near 0.095, cut for the lowest 2% near -0.47. The list shows a part of the results.

B1: LC3A_3_1663 (protein)
chain: MDALIAATLAWLAAQGRSAETLAAVRAALTALAARGYEETLRTFAALLRELAGLSDELLLELAREVLELVETSDLDEEAMTERVREIARTIRSEAEIEEL
B2: LC3A_free_46_2409 (protein)
chain: YKAEIDIYALAETKEKAEKFAEEVKKAAEEIAKKYGIKVEIKVEISKLPDGTYFVEIRITLEAETKETLEKAVNELIDKIEEIAEKLGVSIMISYEIEEK
B3: LC3A_102_155 (protein)
chain: RIEELLERTEEEIRRLAEELARTLSPEEAEELRRLVAEALELLRRYAEELKIGAQHDFETVEGVRAELELEELIERLEEMGAEEIARALREGLERLKELA
B4: LC3A_3_1661 (protein)
chain: MEELIKKTLEYLKEKGKSEEVLEAVKEALEALIEKGYEEAAKVFAELMKELEDLSDELLLDLAEEVKELVETSNISEEEMTKKIKEIARVTRLEAEIEEL
B5: LC3A_102_130 (protein)
chain: TKEEKIKEAIEKELKEIEKILEKDKSLTEEEKKELLEAARTALEAEAESATAEAQHGFVDIEAEDKMLEALEYLKEKSEEVYEATKKAIERIRKLVEELA
B6: LC3A_free_39_2278 (protein)
chain: SPERAAAIDARLDAIAASMSPEAAANLARLREIFADDPEARARLAEALERAREEGADMEEVTARALEIALEGQAEGLSREEIAERVLEEIEDMINLIPLD
B7: LC3A_128_225 (protein)
chain: SEKVEDLIESLERALEDLKKLATTPELQKLLAEAEKKLEELKKLVKEGASKEEIIKQATELLKIVKEFLELARKKGVPDTVALNAAEIDLAEAEEELEEI
B8: LC3A_28_1223 (protein)
chain: SHVDAEIAAARAQLEAAKAAGEEALVTVTITKDTTVEDARRMMEEIERMVAEAADLPAISIIIDFEAGVSQEVIDTAIELGERIEEKYPNVTVLFALDEE
B9: LC3A_147_435 (protein)
chain: WRAVVDISILTKNAKEEVLAALEALVAELRAQGYEVELEIEVEELENGVVFIDATITVRAETREEAEAAADFVVDRIDEIEEKLKDKILGSIISRSIEEE
B10: LC3A_free_26_2156 (protein)
chain: EEFLDIYSIDRAEEKLEEALKLAEETEGIPEELKELIKQAIEEVKKETLESLEKAIELLEEALKLVEELPEELKEEAEKLKKLLEEAIEELKENVKIMKE
B11: LC3A_17_547 (protein)
chain: KEEIKKKLEELLKELKKLVEKLKPYDPEAAKKLEKELKKAEKLLKAGKLKEAAEALIKAAREAADAWEELEPEKGVEASVLAMEANGIEIEAIGLLLKLE
B12: LC3A_147_408 (protein)
chain: YVTEVIIDILTKDAEEEVIARFKEIKKELEAKGYKVELKIEVEKLENGVTYIEVTIKVEAETEEEAKEAADFVLDKIDELEEELKDKILGSLISVEISEA
B13: LC3A_28_936 (protein)
chain: MTVEERIEEALAKAREAAEAGEPVVITITVTKDDTQEEVEKIIEAIREIAEILKDVKGAAIIVDVEAGVPQERVDKIADELEKIEKEYPNINAILALDED
B14: LC3A_28_1163 (protein)
chain: SKTRKSIEEALKEAKEAAAAGEPKAIVLEVEGGITEEETEEVIEALYEIAELLADVEGSAIVINVSSGVSQENLDKIMDAAEEIEERYPNVTVIIALDED
B15: LC3A_3_1458 (protein)
chain: IEKAKKEAEKILKENGADEETIKAALKLLDALAKKGYEKAIERVIEELKKMKNVPSEILLDMFEELLEIVETEDLSEEEVIKKIDEEAAAAKAEAEIEEL
B16: LC3A_3_1872 (protein)
chain: MEEELKETIEALKKAGASEETIKLFRENMELLKERGYEEAAKTLIEETRKLLDAPSELLLEFAEDVLELLKTEDLSEEELIERIKEIARLTRNEAEIIEL
B17: LC3A_28_1256 (protein)
chain: SALEENLERALAEVREAVERGEEAVVTITVPAGVTEEQVEQVIETMEEIAELSKSLPRTTIIVDVEAGVAQEHIDQLIDKGEELEEKYPNLTVIFALEEE
B18: LC3A_free_46_2420 (protein)
chain: MTLDIDIDVLAKTEETAKAVAKELTKTLEDTAKELGVKVEIKVEIEKLEDGTYYVHIDATFTGVTEEQAQQIEDKVIDKVEELEKKYPEILGSIISSELE
B19: LC3A_147_412 (protein)
chain: MEVEIDILVKSEEAVEKVKEAFEETVEELREKGFEVELEIEVEEIEPGVYYVEVRIRIKAETEEEAKEAANYVLDAIDELEEELKDEILGSLISVTLEKE
B20: LC3A_132_270 (protein)
chain: SSELLEKALEELFAILDKIVELLVAGKDPWPAIKELDKKAKEYAKKLSLEDTEELVDKSKAYAAELFAARVDPNDAEARRVLDHIEMLLDSVLIEKELAS
B21: LC3A_3_1823 (protein)
chain: MEEEIEELIKLLKEAGHSEETIEAVKETIEALLEKGYEEAAKTFIELMKEMIHLPSELLLELAKDVKELVESEDLSEEELTEKIKELAKLYKNESEIEEL
B22: LC3A_3_1707 (protein)
chain: GEELLEEARKVLEEHGKSEETIEAALEALKALLERGFEEAAEELLELLKEAENLSDEILLWFFEDVKAVVARPDLTEEEVIAEIRRLWQTAKNDEEIEEL
B23: LC3A_free_8_2467 (protein)
chain: SSQEVVDTVTDGLDKLEEEVEKKAKELGLSELDILDLELLIGSVIADVISNSDKSVEEIRKTFEEGMEEVIEEAEKLSPELAELVRKGREEILKKLEELE
B24: LC3A_free_8_2443 (protein)
chain: SKQEIVDTALEKLEELEEWVREKAKELGLPEIDILELELLIGSAISEIISNSDKSPEEILKTTKESLEEIVEEAKKISEELAKEVKEKAEEILKELEKLL
B25: LC3A_3_1844 (protein)
chain: LEEAVAAALAELRAAGHSDETLAAVRETAEALAARGYEEALKTFIELMRELVHLPSELLLALAEDVLAYLKTNDASEAEVKEYIKEEARLYRNEAEIEEL
B26: LC3A_28_786 (protein)
chain: SKLKENVEKAIKEAKEAAAAGKSQVITIEVPGDATEEDVEYVIEGLEEIAKILDGVKDQAIIIDVDSKVKEEHIKKLAEKADEIEEKYPNVTVIIALEEK
B27: LC3A_free_39_2240 (protein)
chain: SMERIEAVIREIAEESGLPEEEVRAAMEEIQRVAGLTPEQMLEIAEAILEAVRAGADGREILEESLRIARELKAEGKTPEEIKEAILEHIRDMRNLVPLD
B28: LC3A_147_493 (protein)
chain: AVIEIDILVKDKETAEEIVEEIKKIVEELKKEGYEVELEVEIEKLDEDTYYVRVTIKIKAKTPEEEKKAADKVLKEIEKILEKHKDRVLAALINVEYEEE
B29: LC3A_28_1254 (protein)
chain: MEVEESIEKALKEAKEAVEKGEEALVTIKVPAGITEEEVEKVIEAMEEIAELTKSLPKTTILVDVEAGVKQEAIDKLADKGEELEKKYPHLTVILALEEE

Target: MAP1LC3A, Q9H492
Assay: median log2 fold change of GCK-ALFA target abundance (FLAG IP / Myc IP barcode read proportion) (log2 ratio); each designed protein is fused to an ALFA-tag nanobody in HEK293 cells to bring the named protein to FLAG-tagged glucokinase (GCK); Myc marks an untargeted standard; higher = target protein stabilised (more abundant)
Settings: target protein: 3xFLAG-MCP-GCK-ALFA reporter; HEK293 landing pad (RPLP)
Outline: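 Binders fused to an ALFA nanobody were recombined as a library into HEK293 landing-pad cells, which were induced with 2 μg mL^−1 doxycycline and then transfected to express a FLAG-tagged target and a Myc-tagged standard. After 48 h, circular RNA barcodes recovered by anti-FLAG and anti-Myc immunoprecipitation of lysates were reverse transcribed, amplified and sequenced. Each binder's target abundance is the median log2 ratio of FLAG to Myc barcode read proportions, from barcodes present at ≥10^−7 in both replicates, binders carrying ≥3 barcodes per replicate, a 10^−6 pseudocount and pooled replicates.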

Binder | median log2 fold change
B1 | 0.262
B2 | 1.12
B3 | 0.0763
B4 | 0.286
B5 | -0.155
B6 | 0.221
B7 | 0.227
B8 | -0.219
B9 | 0.0484
B10 | 0.448
B11 | 0.0461
B12 | -0.171
B13 | 0.153
B14 | -0.0192
B15 | -0.00536
B16 | 0.135
B17 | -0.127
B18 | -0.177
B19 | -0.156
B20 | 0.22
B21 | 0.448
B22 | 0.207
B23 | -0.0709
B24 | 0.241
B25 | 0.167
B26 | 0.16
B27 | 0.299
B28 | -0.0794
B29 | 0.175
